{
  "source": "the supplement of paper PMC12645437",
  "about": "“Orthogonal IMiD-Degron Pairs Induce Selective Protein Degradation in Cells” (ACS Chemical Biology, 2025)",
  "note": "The list shows a part of the results.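 Also: jurkat cells carrying a lentiviral library of mutant zinc finger degrons fused to EGFP plus mCherry, mCherry+ cells FACS sorted, degron abundance counted by next-generation sequencing.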",
  "data": [
    {"biological_target": "no compound (DMSO)", "experiment": "log2 fold change of degron read counts, EGFP-low vs EGFP+ sorted cells; higher = lower degron-EGFP level without compound (poor expression or instability)", "conditions": "compound: DMSO control; 18 h", "values": [
      {"sequence": "FQCNQCGHTFTQKGNLLRHIKL", "log2 fold change of degron read counts": -1.9},
      {"sequence": "FKCDQCGAWFTQKGNLLRHIKL", "log2 fold change of degron read counts": -0.14},
      {"sequence": "FRCEICGRPFTQKGNLLRHIKL", "log2 fold change of degron read counts": -0.205},
      {"sequence": "FSCPICGHEFTQKGNLLRHIKL", "log2 fold change of degron read counts": -1.51},
      {"sequence": "FMCPICGRGFTQKGNLLRHIKL", "log2 fold change of degron read counts": -0.0279},
      {"sequence": "FLCEICGRRFTQKGNLLRHIKL", "log2 fold change of degron read counts": -1.25},
      {"sequence": "FTCDQCGAMFTQKGNLLRHIKL", "log2 fold change of degron read counts": -1.53},
      {"sequence": "LCCEICGFGCTQKGNLLRHIKL", "log2 fold change of degron read counts": -0.239},
      {"sequence": "FDCEICGHWFTQKGNLLRHIKL", "log2 fold change of degron read counts": 1.52},
      {"sequence": "FNCNQCGHVFTQKGNLLRHIKL", "log2 fold change of degron read counts": -0.261},
      {"sequence": "FLCPVCGAFFTQKGNLLRHIKL", "log2 fold change of degron read counts": 0.532},
      {"sequence": "FGCDQCGAEFTQKGNLLRHIKL", "log2 fold change of degron read counts": -1.43},
      {"sequence": "FHCSVCGHCFTQKGNLLRHIKL", "log2 fold change of degron read counts": -0.18},
      {"sequence": "FACDICGAKFTQKGNLLRHIKL", "log2 fold change of degron read counts": -1.46},
      {"sequence": "FKCEICGHHFTQKGNLLRHIKL", "log2 fold change of degron read counts": -1.7},
      {"sequence": "FKCPICGADFTQKGNLLRHIKL", "log2 fold change of degron read counts": -0.308},
      {"sequence": "FQCNQCGHIFTQKGNLLRHIKL", "log2 fold change of degron read counts": -0.286},
      {"sequence": "FSCDICGATFTQKGNLLRHIKL", "log2 fold change of degron read counts": -1.35},
      {"sequence": "FWCNVCGANFTQKGNLLRHIKL", "log2 fold change of degron read counts": 0.488},
      {"sequence": "FGCEVCGAMFTQKGNLLRHIKL", "log2 fold change of degron read counts": -1.06},
      {"sequence": "LRCPICGFLCTQKGNLLRHIKL", "log2 fold change of degron read counts": 1.62},
      {"sequence": "FYCNQCGAMFTQKGNLLRHIKL", "log2 fold change of degron read counts": 0.574},
      {"sequence": "FFCEICGHQFTQKGNLLRHIKL", "log2 fold change of degron read counts": -1.08},
      {"sequence": "FKCEQCGAKFTQKGNLLRHIKL", "log2 fold change of degron read counts": -1.83},
      {"sequence": "FDCNQCGATFTQKGNLLRHIKL", "log2 fold change of degron read counts": -1.54},
      {"sequence": "FICEICGAKFTQKGNLLRHIKL", "log2 fold change of degron read counts": -1.24},
      {"sequence": "LTCNQCGFVCTQKGNLLRHIKL", "log2 fold change of degron read counts": 0.325},
      {"sequence": "FMCNQCGHFFTQKGNLLRHIKL", "log2 fold change of degron read counts": 0.613},
      {"sequence": "FACNQCGHHFTQKGNLLRHIKL", "log2 fold change of degron read counts": -0.449},
      {"sequence": "FKCEVCGAYFTQKGNLLRHIKL", "log2 fold change of degron read counts": -1.37},
      {"sequence": "FHCNICGACFTQKGNLLRHIKL", "log2 fold change of degron read counts": -0.302},
      {"sequence": "FFCPICGRIFTQKGNLLRHIKL", "log2 fold change of degron read counts": -0.118},
      {"sequence": "FICNQCGAQFTQKGNLLRHIKL", "log2 fold change of degron read counts": -1.01},
      {"sequence": "LHCNQCGFQCTQKGNLLRHIKL", "log2 fold change of degron read counts": 0.31},
      {"sequence": "LFCPICGFFCTQKGNLLRHIKL", "log2 fold change of degron read counts": 2.52},
      {"sequence": "FGCPQCGALFTQKGNLLRHIKL", "log2 fold change of degron read counts": 0.0912},
      {"sequence": "FQCEICGRCFTQKGNLLRHIKL", "log2 fold change of degron read counts": -1.17},
      {"sequence": "LRCEICGFNCTQKGNLLRHIKL", "log2 fold change of degron read counts": 0.458},
      {"sequence": "FHCNQCGRSFTQKGNLLRHIKL", "log2 fold change of degron read counts": -0.0142},
      {"sequence": "FRCEICGRIFTQKGNLLRHIKL", "log2 fold change of degron read counts": -0.92},
      {"sequence": "FVCDICGADFTQKGNLLRHIKL", "log2 fold change of degron read counts": -1.1},
      {"sequence": "FICNVCGAVFTQKGNLLRHIKL", "log2 fold change of degron read counts": -0.142},
      {"sequence": "FCCPICGAVFTQKGNLLRHIKL", "log2 fold change of degron read counts": 0.5},
      {"sequence": "FQCPQCGAIFTQKGNLLRHIKL", "log2 fold change of degron read counts": -0.66},
      {"sequence": "FACNQCGATFTQKGNLLRHIKL", "log2 fold change of degron read counts": -0.96},
      {"sequence": "FFCNQCGRMFTQKGNLLRHIKL", "log2 fold change of degron read counts": 0.296},
      {"sequence": "FRCNQCGHTFTQKGNLLRHIKL", "log2 fold change of degron read counts": -0.55},
      {"sequence": "LSCNQCGFQCTQKGNLLRHIKL", "log2 fold change of degron read counts": 0.505},
      {"sequence": "FACSVCGHPFTQKGNLLRHIKL", "log2 fold change of degron read counts": 0.453},
      {"sequence": "FICNQCGRCFTQKGNLLRHIKL", "log2 fold change of degron read counts": -0.0467}
    ]}
  ]
}
